{"source": "PubChem BioAssay AID651820", "about": "(National Center for Advancing Translational Sciences (NCATS), 2012)", "note": "The whole screen tested about 340,000 compounds, of which about 12,000 (3.5%) were called active. Inconclusive results, whose numbers are uncertain, are shown with a selection of clear calls. The call rests on the fitted dose curve; in most records, active means well fitted inhibition curve with a large enough effect; inconclusive means small, poorly fitted or top-dose-only effect, or another doubt; inactive means no such curve, though single readings can be large or run the other way. Potencies of inconclusive entries are left out as doubtful fits. On the % scale 0 is the no-effect control and ±100 the full control effect; potency means the concentration at half of the fitted maximal effect; tags describe the fitted curve by direction and shape."}
{"test": "qHTS Assay for Inhibitors of Hepatitis C Virus (HCV)", "details": "Huh7.5.1 HCVcc-Cre (HCVcc is cell-culture hepatitis C virus) infection, luciferase reporter, 44 h; activity change, negative = inhibition: at 41.8 µM (top of the series)", "summary_of_the_method": "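Luciferase read-out (15 sec integration) after a 15 min room-temperature substrate step quantifies HCVcc-Cre infection. Cells, 1,000 per well, had compound added 4 h post-plating, then virus at ~0.5 moi, and were cultured 44 h.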"}
{"smiles": "CCOC(=O)COc1ccc(/C=C/[N+](=O)[O-])c(OCC(=O)OCC)c1", "Potency": "inconclusive [inhibitor, single point]"}
{"smiles": "CCC(C)(C)C1CCc2nc3ccccc3c(C(=O)OC(C)C(=O)Nc3c(C)n(C)n(-c4ccccc4)c3=O)c2C1", "note": "(centres undefined)", "Potency": "inconclusive [inhibitor, partial curve]"}
{"smiles": "Cc1ccc(-c2csc3nnc(SCC(=O)Nc4nsc(-c5ccccc5)n4)n23)cc1", "Potency": "inconclusive [inhibitor, partial curve, poor fit]"}
{"smiles": "O=C1/C(=C\\c2cccs2)Sc2ccc3ccccc3c21", "Potency": "inconclusive [inhibitor, partial curve]"}
{"smiles": "NS(=O)(=O)c1ccc(N2N=C(c3ccccc3)CC2c2ccccc2)cc1", "note": "(centres undefined)", "Potency": "inconclusive [inhibitor, partial curve]"}
{"smiles": "O=C(NC1CCCCC1)C1Cc2ccccc2CN1S(=O)(=O)c1ccc(F)cc1", "note": "(centres undefined)", "activity change, negative = inhibition": "inactive: -11.1%"}
{"smiles": "COc1ccc(C(=O)Nc2ccc(CN3CCS(=O)(=O)CC3)cc2)cc1", "activity change, negative = inhibition": "inactive: -22.3%"}
{"smiles": "COc1cc(NC(=O)C2CC(c3c(F)cccc3Cl)=NO2)cc(OC)c1OC", "note": "(centres undefined)", "Potency": "active: 25.1 µM"}
{"smiles": "COc1ccccc1NS(=O)(=O)c1cccc(C(=O)OCc2nc3ccccc3s2)c1", "activity change, negative = inhibition": "inactive: 33.3%"}
{"smiles": "CN(C)C(=O)c1cn(-c2ccccc2)nc1-c1cc2ccccc2o1", "Potency": "inconclusive [inhibitor, partial curve]"}
{"smiles": "CCCc1nc2ccccc2c(=O)n1NC(=O)c1c(O)c2cccc3c2n(c1=O)CCC3", "Potency": "inconclusive [inhibitor, single point]"}
{"smiles": "CC1(C)CC(=O)C(CC(=O)Nc2ccc(S(N)(=O)=O)cc2)=C(O)C1", "activity change, negative = inhibition": "inactive: 5.13%"}
{"smiles": "CCCCOC(=O)c1ccc(NC(=S)N2CCN(c3ncc4c(=O)c(C(=O)O)cn(CC)c4n3)CC2)cc1", "activity change, negative = inhibition": "inactive: -9.54%"}
{"smiles": "CNC(=O)/C(C#N)=C/c1c(N(Cc2ccccc2)Cc2ccccc2)nc2ccccn2c1=O", "Potency": "inconclusive [inhibitor, single point]"}
{"smiles": "Cc1nc(-c2nnc(SCC(=O)Nc3ccc(C(F)(F)F)cc3)n2C)cs1", "activity change, negative = inhibition": "inactive: -8.28%"}
{"smiles": "COc1ccccc1NC(=O)CSc1nnc(C2CCCCC2)n1-c1ccccc1", "Potency": "inconclusive [inhibitor, partial curve, poor fit]"}
{"smiles": "COc1ccc(CC(=O)OCC(=O)Nc2c(C)n(C)n(-c3ccccc3)c2=O)cc1", "activity change, negative = inhibition": "inactive: 14.3%"}
{"smiles": "CCOC(=O)CSC1=C(C#N)C(c2ccc(F)cc2)C(C(C)=O)=C(C)N1", "note": "(centres undefined)", "activity change, negative = inhibition": "inactive: -7.59%"}
{"smiles": "CC(C)(O)C#Cc1ccc(C(=O)N2CCN(c3ccc([N+](=O)[O-])cc3)CC2)cc1", "Potency": "inconclusive [inhibitor, single point]"}
